# Article PMC4336329 (PLoS ONE, 2015)
# Screen size: about 310,000 compounds; about 14,000 (4.5%) showed an effect of 50% or more. Effects have a minus sign here. Some of the results follow.
# Target: human ether-à-go-go-related gene (hERG) potassium channel (human, UniProt Q12809)
# Assay: primary screen, population patch clamp on CHO cells stably expressing hERG
# 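Note: peak tail current of the secondary pulse compared with the same well before compound.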
# Chain of human ether-à-go-go-related gene (hERG) potassium channel (Q12809 whole entry, looked up): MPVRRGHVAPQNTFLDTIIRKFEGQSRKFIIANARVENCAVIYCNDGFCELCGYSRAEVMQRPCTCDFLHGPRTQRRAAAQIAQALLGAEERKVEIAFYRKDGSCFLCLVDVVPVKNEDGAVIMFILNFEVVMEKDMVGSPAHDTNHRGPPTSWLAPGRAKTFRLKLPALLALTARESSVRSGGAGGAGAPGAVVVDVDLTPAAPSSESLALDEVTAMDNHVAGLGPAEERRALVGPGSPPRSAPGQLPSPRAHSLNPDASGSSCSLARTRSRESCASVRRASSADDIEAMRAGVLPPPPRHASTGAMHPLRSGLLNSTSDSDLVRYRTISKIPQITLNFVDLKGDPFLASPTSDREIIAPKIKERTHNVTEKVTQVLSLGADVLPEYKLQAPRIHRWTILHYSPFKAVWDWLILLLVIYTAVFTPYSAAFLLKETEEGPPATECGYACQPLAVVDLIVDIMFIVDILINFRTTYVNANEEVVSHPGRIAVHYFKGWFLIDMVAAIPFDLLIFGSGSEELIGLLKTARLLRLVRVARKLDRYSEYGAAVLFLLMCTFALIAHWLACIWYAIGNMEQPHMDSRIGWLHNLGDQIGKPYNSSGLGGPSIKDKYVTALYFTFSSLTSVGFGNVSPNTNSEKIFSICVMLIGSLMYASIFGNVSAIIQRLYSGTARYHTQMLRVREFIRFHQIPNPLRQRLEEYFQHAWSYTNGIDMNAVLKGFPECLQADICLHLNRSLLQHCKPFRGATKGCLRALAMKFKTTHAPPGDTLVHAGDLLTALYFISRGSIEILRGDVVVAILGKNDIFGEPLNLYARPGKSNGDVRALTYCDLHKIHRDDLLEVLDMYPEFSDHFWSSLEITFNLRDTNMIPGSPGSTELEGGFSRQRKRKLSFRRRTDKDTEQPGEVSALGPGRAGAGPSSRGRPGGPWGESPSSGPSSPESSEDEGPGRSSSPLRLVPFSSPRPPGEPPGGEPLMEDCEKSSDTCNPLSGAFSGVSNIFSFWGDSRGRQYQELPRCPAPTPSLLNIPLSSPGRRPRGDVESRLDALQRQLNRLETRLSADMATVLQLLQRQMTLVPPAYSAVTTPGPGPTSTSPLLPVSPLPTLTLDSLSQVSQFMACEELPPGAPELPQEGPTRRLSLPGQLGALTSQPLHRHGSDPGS
row,Structure (SMILES),"hERG current change (%, negative = inhibition) at 10uM"
1,Cc1cc(C)c(COCc2cc(/C=N/O)c(C)cc2C)cc1/C=N/O,6.96%
2,COc1ccc(NC(=O)c2c(C)nn(-c3ccccc3)c2Cl)cc1,20.4%
3,CCCCc1ccc(NC(=O)C(=O)NCCN2CCN(Cc3ccc([N+](=O)[O-])cc3)CC2)cc1,-66.7%
4,Cc1ccc(S(=O)(=O)N2CCCC2CNC(=O)C(=O)NC2CC2)cc1 (stereo not drawn),3.03%
5,COc1ccccc1OCCNC(=O)c1ccccc1C,12.1%
6,CCC(=O)Nc1ccc(C(=O)NNC(=O)c2cccs2)cc1,1.76%
7,O=C(Nc1cccnc1)c1ccc([N+](=O)[O-])cc1Cl,1.29%
8,CCOC(=O)Cn1c(=N)n(Cc2ccccc2F)c2ccccc21.Cl,-28.3%
9,COc1ccc(Nc2nc(S(=O)(=O)c3ccc(C)cc3)c(Cl)s2)cc1,15.4%
10,CC(C)CN(C(=O)c1ccc([N+](=O)[O-])s1)c1c(N)n(Cc2ccccc2)c(=O)[nH]c1=O,10.3%
11,Cn1c(Sc2ccc(Cl)cc2)c(C=O)c2ccccc21,7.61%
12,CCOc1ccc(S(=O)(=O)Nc2ccc(O)c(Sc3ncn[nH]3)c2)cc1,0.463%
13,O=S(=O)([N-]c1nc2ccccc2nc1-n1cc[n+](Cc2ccccc2)c1)c1ccc(Br)cc1,18.4%
14,CCn1nnnc1SCC(=O)c1ccc(C)cc1C,6.95%
15,O=C(Cc1ccccc1)NC(NCCCN1CCOCC1)(C(F)(F)F)C(F)(F)F,5.2%
16,CCOCCCNC(=O)c1cccc(OC2CCN(S(C)(=O)=O)CC2)c1,12.6%
17,CC(C)CCN1CC(O)=C(c2nc3ccccc3[nH]2)C1=N,-15.3%
18,COc1cccc(CNc2ccc([N+](=O)[O-])cc2Cl)c1O,9.67%
19,CCOC(=O)C(=O)/C(=C\N(C)C)c1onc(-c2c(F)cccc2Cl)c1C(=O)OC,-3.09%
20,CCN(CC)S(=O)(=O)c1ccc(NC(=O)c2cccc3c2C(=O)N(CCOC)C3)cc1,-1.36%
21,CCOC(=O)c1[nH]c2ccc(Br)cc2c1NC(=O)CCN1CCCC(C)(C)C1,-75.7%
22,CCCC(=O)Nc1ccc(Nc2ccccc2)cc1,7.75%

row,Structure (SMILES),"hERG current change (%, negative = inhibition) at 10uM"
1,CCCC(=O)Nc1ccccc1NC(=O)C1CCCCC1,13%
2,CN1CCN(c2ccc(NC(=S)NC(=O)/C=C/c3ccco3)cc2)CC1,-7.96%
3,CC(=O)C1=C(C)NC2=C(C(=O)c3ccccc32)C1c1ccccc1 (stereo not drawn),4.66%
4,Nc1nc(COc2ccc(F)cc2)nc(N2CCCCC2)n1,6.11%
5,COc1ccc(NC(=O)/C(=C/c2ccc3c(c2)OCO3)NC(C)=O)cc1,14.3%
6,COc1ccc(OCCSc2nnc(CCNC(=O)c3ccc(OC)cc3)n2C)cc1,-6.83%
7,Cc1ccc(NNC(=O)C(=O)N2CCCCC2)cc1,8.98%
8,CC(=O)N(CCc1ccccc1C)Cc1cc2ccc(C)cc2[nH]c1=O,-18.3%
9,O=C(Nc1cccc(NC(=O)c2cc([N+](=O)[O-])ccc2Cl)n1)c1cc([N+](=O)[O-])ccc1Cl,-12.7%
10,Cc1ccc(NC(=O)c2cc3c(=O)oc4ccccc4c3s2)nc1,-11.1%
11,COC(C(=O)Nc1cc([N+](=O)[O-])ccc1C)c1ccccc1 (stereo not drawn),-18.7%
12,COc1ccc2c(=O)c3c(=O)n(Cc4ccco4)c(-c4cc(OC)c(OC)c(OC)c4)nc3oc2c1,-16%
13,O=C(CN(C1CCCCC1)S(=O)(=O)c1ccc(Br)cc1)NCc1ccncc1,-72.9%
14,COc1ccc(NC(=O)C(CC(=O)O)Cc2ccc(Cl)cc2)cc1 (stereo not drawn),11.9%
15,CCCc1cc(=O)oc2c(C)c(OCC(=O)NC3CCN(Cc4ccccc4)CC3)ccc12,-51.4%
16,COc1ccc(C(=O)NC(=S)Nc2ccc(N3CCCC3)cc2)cc1,33.8%
17,CCCN(C(=O)COc1ccc(Cl)cc1Cl)c1c(N)n(Cc2ccccc2)c(=O)[nH]c1=O,-37.9%
18,Cn1cccc1C(=O)OCC(=O)Nc1cc(C(C)(C)C)nn1-c1ccccc1,-29.2%
19,O=C(N/C(=C/c1ccc(Br)cc1)C(=O)N1CCCCC1)c1ccccc1F,-40.7%
20,C#C[C@]1(O)CC[C@H]2[C@@H]3CCC4=C(CCC(=O)C4)[C@H]3CC[C@@]21C,14.8%
21,N#CCC(CNc1ncc(C(F)(F)F)cc1Cl)OC(=O)c1cccc([N+](=O)[O-])c1 (stereo not drawn),-47.8%
22,O=C(CC1C(=O)NCCN1C(=O)Nc1ccc(F)cc1F)Nc1cc(Cl)ccc1Cl (stereo not drawn),-1.87%

row,Structure (SMILES),"hERG current change (%, negative = inhibition) at 10uM"
1,CCOC(=O)N1CCN(C(=O)CN2C(=O)NC(C)(c3ccc4ccccc4c3)C2=O)CC1 (stereo not drawn),-30.8%
2,CC(C)(C)c1nnc(NC(=O)Cc2ccccc2[N+](=O)[O-])s1,-26.8%
3,O=C(Cn1cnc2c(nnn2Cc2ccccc2)c1=O)c1ccccc1,-8%
4,COc1ccc(C(CC(=O)NCCN2CCOCC2)NS(=O)(=O)c2ccc(C)cc2)cc1 (stereo not drawn),5.28%
5,Cc1ccc(S(=O)(=O)N(Cc2ccccc2)Cc2ccco2)cc1,3.04%
6,CCOC(=O)N1CCN(C(=O)c2ccc3c(c2)NC(=O)/C(=C/c2ccccc2)S3)CC1,-17.8%
7,Cc1cn(CCOc2ccc(Cl)cc2)c(=O)[nH]c1=O,-8.22%
8,O=C(O)c1c2c(nc3ccc(S(=O)(=O)N4CCC(C(=O)NCc5ccccc5Cl)CC4)cc13)CCCC2,-5.66%
9,Nc1nc2c(F)c(F)c(F)cc2s1,29%
10,N#Cc1ccccc1OCC(=O)Nc1ccc(N2CCOCC2)cc1N1CCOCC1,-22.7%
11,CCc1cc2c(-c3ccccc3)cc(=O)oc2cc1OCC(=O)NCC1CCC(C(=O)O)CC1 (stereo not drawn),4.69%
12,CCc1noc(C)c1C(=O)NCCc1ccc(Cl)cc1,13.6%
13,CCc1nn(C(CC)C(=O)NCc2cccc(OC)c2)c(=O)c2cc3occc3n12 (stereo not drawn),-32.9%
14,COCCNC(=O)CN(C(=O)Cn1nnc2ccccc21)c1ccc(C)cc1,31%
15,CC1CN=C(Nc2cccc3ccccc23)S1 (stereo not drawn),-10.7%
16,CCCc1ccc(-c2cc(C(=O)N3CCN(c4ccccn4)CC3)c3ccccc3n2)cc1,13.4%
17,CCCOc1ccccc1NC(=O)/C=C/C(N)=O,5.16%
18,Cc1ccc(C)c(NC(=S)Nc2cccnc2)c1,10.7%
19,CC1(C)c2cc(O)ccc2OC1N1CCOCC1 (stereo not drawn),13.6%
20,O=C(CSc1nc2[nH]ncc2c(=O)[nH]1)Nc1nccs1,2.49%
21,Cl.O=C(CCc1ccccc1)N1CCN(CCO)CC1,12%
22,Cc1ccccc1[C@@H](NC(=O)OC(C)(C)C)C(=O)OC(C)(C)C,1.92%

row,Structure (SMILES),"hERG current change (%, negative = inhibition) at 10uM"
1,CCOC(=O)C1(CCOC)CCN(Cc2ccc(C(=O)OC)cc2)CC1,-27.2%
2,Fc1ccc2nc(Nc3nc4c(s3)CCCC4)sc2c1,3.62%
3,COc1ccc(C(=O)N/N=C\c2coc3ccc(C)cc3c2=O)cc1,14.7%
4,O=C(COc1ccc2ccc(=O)oc2c1)NCCc1c[nH]c2ccc(F)cc12,19.8%
5,CN1CCN(CCc2nc3cc(NC(=O)COc4ccccc4)ccc3n2C)CC1,-32.6%
6,N#CC1=C(N)Oc2c(c(=O)sc3ccccc23)C1c1cccnc1 (stereo not drawn),11%
7,O=C(NCc1ccco1)C1CCCCN1S(=O)(=O)c1ccc(F)cc1 (stereo not drawn),-2.24%
8,Cc1cc(OCC(=O)N2CCOCC2)ccc1NC(=O)C1CCCCC1,3.92%
9,COCCn1c(C)cc(C(=O)CN2CCCCC2)c1C.O=C(O)C(=O)O,35.8%
10,CC1CCN(C(=O)COC(=O)CSc2ccc(C(N)=O)cc2[N+](=O)[O-])CC1,-5.38%
11,COc1ccc(NC(=S)N(CCN2CCOCC2)Cc2ccccc2F)cc1,-10.7%
12,COc1ccc(CCNS(=O)(=O)c2ccc(Br)cc2)cc1OC,2.58%
13,Cc1cccc(NC(=O)CNC(=O)c2ccco2)n1,7.23%
14,Cc1[nH]c(C)c(S(=O)(=O)N2CCN(c3ccccc3)CC2)c1C(=O)N1CCCCC1,6.19%
15,COc1ccccc1C(=O)NCCCN1CCCC1=O,7.63%
16,[N-]=[N+]=CC(=O)OC[C@H](N)C(=O)O,10.8%
17,CCN1CCN(Cc2ccc(NC(=O)c3cc(NC(=O)c4cc5cccc(OC)c5o4)cc(OC)c3)cc2C(F)(F)F)CC1,8.13%
18,COc1ccc(/C=C2\N=C3CCCN3C2=O)cc1,-6.43%
19,CC1CCN(C(=S)Nc2ccc(F)cc2)CC1,3.1%
20,Cc1cccc(-c2nc(CSc3nc4c(c(=O)[nH]3)CCC4)c(C)o2)c1,17.9%
21,CCCNC(=O)C1CC(c2cccc(F)c2)=NO1 (stereo not drawn),-3.13%
